Assay results published in PubChem BioAssay AID1645887 (National Center for Advancing Translational Sciences (NCATS), 2021).
“And” between values parts separate entries of the source, which are not always exact repeats. Identical values can stand only once. About 40 (0.2%) of roughly 16,000 compounds were called active. Not shown: some 1% with an inconclusive outcome. The call rests on the fitted dose curve; in most records, active means well fitted activation curve with a large enough effect; inconclusive means small, poorly fitted or top-dose-only effect, or another doubt; inactive means no such curve, though single readings can be large or run the other way. Some of the results follow.

Biological target: Rap guanine nucleotide exchange factor 4 (Homo sapiens) (UniProt Q8WZA2)
UniProt Q8WZA2, sequence (Q8WZA2 whole entry, looked up): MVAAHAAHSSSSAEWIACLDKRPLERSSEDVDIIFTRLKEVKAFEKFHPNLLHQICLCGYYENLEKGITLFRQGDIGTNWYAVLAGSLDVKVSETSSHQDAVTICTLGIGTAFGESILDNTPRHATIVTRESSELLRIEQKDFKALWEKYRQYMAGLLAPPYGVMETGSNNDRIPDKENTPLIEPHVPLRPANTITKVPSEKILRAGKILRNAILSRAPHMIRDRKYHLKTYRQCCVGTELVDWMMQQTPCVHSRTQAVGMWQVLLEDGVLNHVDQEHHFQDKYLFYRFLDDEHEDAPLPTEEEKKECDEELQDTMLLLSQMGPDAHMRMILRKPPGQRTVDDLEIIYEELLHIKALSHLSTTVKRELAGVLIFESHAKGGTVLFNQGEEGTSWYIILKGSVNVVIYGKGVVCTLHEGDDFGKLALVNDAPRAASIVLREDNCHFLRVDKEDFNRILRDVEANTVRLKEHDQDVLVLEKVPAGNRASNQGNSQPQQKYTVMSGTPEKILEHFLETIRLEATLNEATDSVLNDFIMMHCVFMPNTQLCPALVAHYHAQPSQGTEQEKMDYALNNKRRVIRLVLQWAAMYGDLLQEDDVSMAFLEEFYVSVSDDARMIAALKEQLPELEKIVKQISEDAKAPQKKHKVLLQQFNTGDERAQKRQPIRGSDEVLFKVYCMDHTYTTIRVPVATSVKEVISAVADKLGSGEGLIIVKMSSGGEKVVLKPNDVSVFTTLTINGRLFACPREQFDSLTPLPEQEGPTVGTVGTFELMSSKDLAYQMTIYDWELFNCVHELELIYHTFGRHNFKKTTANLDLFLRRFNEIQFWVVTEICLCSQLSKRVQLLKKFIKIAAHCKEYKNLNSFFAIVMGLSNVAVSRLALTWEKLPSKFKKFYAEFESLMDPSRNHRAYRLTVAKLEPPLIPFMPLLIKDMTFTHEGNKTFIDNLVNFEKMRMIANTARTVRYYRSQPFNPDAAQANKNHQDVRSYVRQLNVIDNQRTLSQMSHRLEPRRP
Assay: Validation qHTS for agonist of cAMP-regulated guanine nucleotide exchange factor 4 (EPAC2);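 further: exchange makes BODIPY-GDP fluorescence drop when released from Rap1B; series mostly up to about 150 µM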
Details: EPAC2 Rap1B BODIPY-GDP exchange, fluorescence; activation: stronger effect = higher value
Procedure, shortened: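 Fluorescent exchange assay: 100 nM EPAC2 with 250 nM RAP1B-BODIPY-GDP and 50 uM GDP; compound added, 5 min at room temperature, then read (ex 480/em 540 nm) every 5 min for 30 min. Normalized to 6.5 mM cAMP agonist control.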
On the % scale 0 is the no-effect control and ±100 the full control effect.

activation, inactive:
CC(Oc1ccc(O)cc1)(P(=O)(O)O)P(=O)(O)O -19.5%
COc1cc(=O)n2c(c1C(=O)NCc1ccsc1)CCN(Cc1nc3ccccc3[nH]1)CC2 4.16%
CC[C@@H](C(=O)O)[C@@H]1O[C@@H]([C@@H](C)[C@H](O)[C@H](C)C(=O)[C@H](CC)[C@H]2O[C@]3(C=C[C@@H](O)[C@]4(CC[C@@](C)([C@H]5CC[C@](O)(CC)[C@H](C)O5)O4)O3)[C@H](C)C[C@@H]2C)[C@@H](C)C[C@@H]1C -13%
COc1ccccc1-c1nccc(Nc2ccc(F)cc2)n1 -14.4%
O=C(Nc1cc(C(=O)NC2CCOCC2)c2c(c1)ncn2C1CCCC1)c1ccccc1 -9.67%
COc1cc(=O)n2c(c1C(=O)N(C)Cc1cscn1)CCN(C(=O)c1ccc(C)cc1C)CC2 -3.32%
Cc1ccc(N(CC2=NCCN2)c2cccc(O)c2)cc1 -6.85% [middle of 5 runs]
O=C(NCC1Cc2cccc(-c3nccs3)c2O1)c1ccnc(Cl)c1 (centres undefined) -8.95%
O=c1c(-c2cc(F)cc(F)c2)nc2cnc(N3CCOCC3)nc2n1Cc1cccs1 -4.83%
c1coc(-c2ccccc2CN2CCOc3ccc(CN4CCOCC4)cc3C2)c1 -27.1%
Cc1c(C(=O)N2CCCC2)sc2ncnc(NCCc3ccccn3)c12 -11.2%
O=C1CCN(Cc2cccn2-c2ccccn2)CCN1Cc1ccccc1C(F)(F)F -1.02%
CNc1ncnc2c1ncn2[C@H]1C[C@H](O)[C@@H](CO)O1 6.03%
COc1ccc2[nH]cc(CCNC(=O)C3CC3)c2c1 -4.16%
C=C[C@@H]1c2cc(C)ccc2N(S(=O)(=O)c2ccc(C)cc2)[C@H](c2ccc(OC(C)=O)cc2)C1(C#N)C#N -9.82%
COC(=O)CCCC[C@@H]1SC[C@@H]2NC(=O)N[C@@H]21 2.32%
COc1cc(OC)c(OC)cc1/C=c1\[nH]c(=O)/c(=C/c2cc(OC)c(OC)cc2OC)[nH]c1=O -14.9%
Cc1ccccc1-c1ccc2ncnc(-n3ccnc3)c2c1 -9.37%
COC(=O)[C@@]1(C)CCC[C@@]2(C)c3ccc(O)c(C(C)C)c3CCC21 (some centres undefined) -28.7%
CC#CCC(C)[C@H](O)/C=C/[C@@H]1[C@H]2c3cccc(CCCC(=O)O)c3O[C@H]2C[C@H]1O (some centres undefined) 11.9%
CCc1ccc(CCOc2ccc(CC3SC(=O)NC3=O)cc2)nc1 (centres undefined) 10.1% and -0.481%
CNC1C(O)[C@@H]2OC(O[C@@H]3C(O)C(O)C(N)C[C@H]3N)C(N)C[C@H]2O[C@H]1O[C@@H]1OC(CO)C(N)C(O)C1O (some centres undefined) -0.0486%
COC(=O)[C@H]1[C@H]2C[C@@H]3c4[nH]c5cc(OC)ccc5c4CCN3C[C@H]2C[C@H](OC)[C@@H]1OC -18.5%
COc1ccc(OC)c(-c2ccnc(-n3ncc(C(=O)N(C)CCO)c3C3CC3)n2)c1 -2.72%
CC(C)(C)c1ccc(/C=C/C(=O)Nc2ccc3c(c2)OCCO3)cc1 -30.8%
Cc1c(C(C)C)c(=O)n(-c2ccccc2)n1C 1.7%
Cc1ccc(CNc2nc(CN3CCCCC3c3cccnc3)nc3ccccc23)o1 (centres undefined) -7.59%
CNC(=O)[C@H]1O[C@@H](n2cnc3c(N)ncnc32)[C@H](O)[C@@H]1O -6.23%
Cc1noc(C)c1C(=O)N1CCC[C@@]2(CCN(c3ccccn3)C2)C1 -4.38%
COCCn1c(=O)c(-c2cn(C)c3ccccc23)nc2cnc(N3CCNCC3)nc21 1.44%
CC(C)(CNC(=O)c1cnn(-c2ncc3c(n2)-c2ccccc2CCC3)c1C1CC1)N1CCOCC1 -10.6%
COc1cc(=O)n2c(c1C(=O)N(C)Cc1nccs1)CCN(Cc1ccc(Cl)cc1)CC2 2.99%
NCCCCC(=O)O -7.11% and -11.4%
c1ccc(CC2=NCCN2)cc1 11.5% and 8.53%
CC(=O)OC1CC2C(C)(C)C(O)CC[C@@]2(C)C2CC[C@@]3(C)C(c4ccoc4)OC(=O)C4OC43[C@]12C (some centres undefined) -9.03%
C/C=C(\C)C(=O)OC1C(OC(=O)C2(C)OC2C)c2cc3ccc(=O)oc3cc2OC1(C)C (centres undefined) -24.9%
O=C(c1ccncc1)N1CCC2(CCCN(c3ncccn3)C2)CC1 -2.5%
OCCN1CCN(CCCN2c3ccccc3Sc3ccc(C(F)(F)F)cc32)CC1 -15.7% and -80.7%
CC(C)(Oc1ccc(CCNC(=O)c2ccc(Cl)cc2)cc1)C(=O)O -5.42% [middle of 5 runs]
Cc1cccnc1-c1cccc2c1OC(CNC(=O)C1CCCc3c1[nH]c1ccccc31)C2 (centres undefined) -0.76%
CCCCCCCCCCCCCC(=O)N[C@H](C)[C@@H](O)c1ccccc1 4.75%
CC(=O)OCC1OC(n2cnc3c(Cl)nc(Cl)nc32)C(OC(C)=O)C1OC(C)=O (centres undefined) -11.2%
CC(CCC(=O)O)C1CCC2C3C(O)C[C@@H]4CC(O)CC[C@@]4(C)C3CC(O)[C@]12C (some centres undefined) -16.6%
COc1ccc(S[C@@H](CCN2CC[C@H](O)CCC2=O)c2ccccc2)cc1 -20%
CC(C)C[C@@H](CO)N1CCN(Cc2ccc(O)cc2)CCC1=O -4.35%
COCc1c(C(=O)N2CCC(N(C)C)C2)cnn1-c1ncc2c(n1)-c1ccccc1CCC2 (centres undefined) -10.6%
COc1cccc(Nc2ncc3nc(CCc4ccccc4)c(=O)n(C4CC4)c3n2)c1 -2.12%
COc1ccc(CN2CCOc3ccc(CN4CCC(O)(c5cccnc5)CC4)cc3C2)cc1OC -16%
O=C(O)CCc1nc(-c2ccccc2)c(-c2ccccc2)o1 2.82% and -16.4% and -14.8%
